To fix the notation:
T1: RBFOX1 RRM RbFoxmut (Fox-RRM*) (Homo sapiens, UniProt Q9NWB1 109-208, R118D;E147R;N151S;E152T)
T1 sequence: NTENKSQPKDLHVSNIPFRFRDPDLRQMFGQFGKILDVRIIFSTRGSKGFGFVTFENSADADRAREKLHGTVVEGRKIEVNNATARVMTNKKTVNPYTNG

B1: CUGAGUA (DNA:RNA)
RNA: GGGAGACCGGAAUUCAGAUUGUCCCUGAGUAUUAAAUCCCGUCGUAGCCACCA
DNA 1: CAATCTGAATTCCGGTCTCCC
DNA 2: TGGTGGCTACGACGGGATT
B2: UGGUACG (DNA:RNA)
RNA: B1 RNA with C25U, U26G, A28U, G29A, U30C, A31G
DNA 1: CAATCTGAATTCCGGTCTCCC
DNA 2: TGGTGGCTACGACGGGATT
B3: GCGUAGU (DNA:RNA)
RNA: B1 RNA with C25G, U26C, A28U, G29A, U30G, A31U
DNA 1: CAATCTGAATTCCGGTCTCCC
DNA 2: TGGTGGCTACGACGGGATT
B4: CUACGCC (DNA:RNA)
RNA: B1 RNA with G27A, A28C, U30C, A31C
DNA 1: CAATCTGAATTCCGGTCTCCC
DNA 2: TGGTGGCTACGACGGGATT
B5: UUGCCAA (DNA:RNA)
RNA: B1 RNA with C25U, A28C, G29C, U30A
DNA 1: CAATCTGAATTCCGGTCTCCC
DNA 2: TGGTGGCTACGACGGGATT
B6: CUCCACC (DNA:RNA)
RNA: B1 RNA with G27C, A28C, G29A, U30C, A31C
DNA 1: CAATCTGAATTCCGGTCTCCC
DNA 2: TGGTGGCTACGACGGGATT
B7: AGUGACC (DNA:RNA)
RNA: GGGAGACCGGAAUUCAGAUUGUCCAGUGACCUUAAAUCCCGUCGUAGCCACCA
DNA 1: CAATCTGAATTCCGGTCTCCC
DNA 2: TGGTGGCTACGACGGGATT
B8: AGCGUCC (DNA:RNA)
RNA: B7 RNA with U27C, A29U
DNA 1: CAATCTGAATTCCGGTCTCCC
DNA 2: TGGTGGCTACGACGGGATT
B9: GGCAUGG (DNA:RNA)
RNA: B7 RNA with A25G, U27C, G28A, A29U, C30G, C31G
DNA 1: CAATCTGAATTCCGGTCTCCC
DNA 2: TGGTGGCTACGACGGGATT
B10: UGGGGCU (DNA:RNA)
RNA: B7 RNA with A25U, U27G, A29G, C31U
DNA 1: CAATCTGAATTCCGGTCTCCC
DNA 2: TGGTGGCTACGACGGGATT
B11: UACCGGA (DNA:RNA)
RNA: B1 RNA with C25U, U26A, G27C, A28C, U30G
DNA 1: CAATCTGAATTCCGGTCTCCC
DNA 2: TGGTGGCTACGACGGGATT
B12: AUAAAAA (DNA:RNA)
RNA: B1 RNA with C25A, G27A, G29A, U30A
DNA 1: CAATCTGAATTCCGGTCTCCC
DNA 2: TGGTGGCTACGACGGGATT
B13: UGCUGCC (DNA:RNA)
RNA: B7 RNA with A25U, U27C, G28U, A29G
DNA 1: CAATCTGAATTCCGGTCTCCC
DNA 2: TGGTGGCTACGACGGGATT
B14: GUCAGAG (DNA:RNA)
RNA: B1 RNA with C25G, G27C, U30A, A31G
DNA 1: CAATCTGAATTCCGGTCTCCC
DNA 2: TGGTGGCTACGACGGGATT
B15: UCAAAAA (DNA:RNA)
RNA: B1 RNA with C25U, U26C, G27A, G29A, U30A
DNA 1: CAATCTGAATTCCGGTCTCCC
DNA 2: TGGTGGCTACGACGGGATT
B16: CCGUCGC (DNA:RNA)
RNA: B1 RNA with U26C, A28U, G29C, U30G, A31C
DNA 1: CAATCTGAATTCCGGTCTCCC
DNA 2: TGGTGGCTACGACGGGATT
B17: UUGUCGU (DNA:RNA)
RNA: B1 RNA with C25U, A28U, G29C, U30G, A31U
DNA 1: CAATCTGAATTCCGGTCTCCC
DNA 2: TGGTGGCTACGACGGGATT
B18: ACCCUGA (DNA:RNA)
RNA: B7 RNA with G26C, U27C, G28C, A29U, C30G, C31A
DNA 1: CAATCTGAATTCCGGTCTCCC
DNA 2: TGGTGGCTACGACGGGATT
B19: CCCGGUC (DNA:RNA)
RNA: B1 RNA with U26C, G27C, A28G, A31C
DNA 1: CAATCTGAATTCCGGTCTCCC
DNA 2: TGGTGGCTACGACGGGATT
B20: GGCUCAG (DNA:RNA)
RNA: B7 RNA with A25G, U27C, G28U, A29C, C30A, C31G
DNA 1: CAATCTGAATTCCGGTCTCCC
DNA 2: TGGTGGCTACGACGGGATT
B21: CCUAACC (DNA:RNA)
RNA: B7 RNA with A25C, G26C, G28A
DNA 1: CAATCTGAATTCCGGTCTCCC
DNA 2: TGGTGGCTACGACGGGATT
B22: CCCUACC (DNA:RNA)
RNA: B7 RNA with A25C, G26C, U27C, G28U
DNA 1: CAATCTGAATTCCGGTCTCCC
DNA 2: TGGTGGCTACGACGGGATT
B23: GAAUAGU (DNA:RNA)
RNA: B7 RNA with A25G, G26A, U27A, G28U, C30G, C31U
DNA 1: CAATCTGAATTCCGGTCTCCC
DNA 2: TGGTGGCTACGACGGGATT
B24: UUAUUUC (DNA:RNA)
RNA: B1 RNA with C25U, G27A, A28U, G29U, A31C
DNA 1: CAATCTGAATTCCGGTCTCCC
DNA 2: TGGTGGCTACGACGGGATT
B25: AGCCACU (DNA:RNA)
RNA: B7 RNA with U27C, G28C, C31U
DNA 1: CAATCTGAATTCCGGTCTCCC
DNA 2: TGGTGGCTACGACGGGATT
B26: AAACUCA (DNA:RNA)
RNA: B7 RNA with G26A, U27A, G28C, A29U, C31A
DNA 1: CAATCTGAATTCCGGTCTCCC
DNA 2: TGGTGGCTACGACGGGATT
B27: CUUUCCA (DNA:RNA)
RNA: B1 RNA with G27U, A28U, G29C, U30C
DNA 1: CAATCTGAATTCCGGTCTCCC
DNA 2: TGGTGGCTACGACGGGATT
B28: CCAUAAC (DNA:RNA)
RNA: B7 RNA with A25C, G26C, U27A, G28U, C30A
DNA 1: CAATCTGAATTCCGGTCTCCC
DNA 2: TGGTGGCTACGACGGGATT
B29: AAAGCCG (DNA:RNA)
RNA: B7 RNA with G26A, U27A, A29C, C31G
DNA 1: CAATCTGAATTCCGGTCTCCC
DNA 2: TGGTGGCTACGACGGGATT
B30: GACUCAC (DNA:RNA)
RNA: B7 RNA with A25G, G26A, U27C, G28U, A29C, C30A
DNA 1: CAATCTGAATTCCGGTCTCCC
DNA 2: TGGTGGCTACGACGGGATT
B31: AUGCAAU (DNA:RNA)
RNA: B7 RNA with G26U, U27G, G28C, C30A, C31U
DNA 1: CAATCTGAATTCCGGTCTCCC
DNA 2: TGGTGGCTACGACGGGATT

Substitutions are numbered along the chain they refer to; changes in the protein carry UniProt numbers. This is one part of the list.

The test addresses T1, RBFOX1 RRM RbFoxmut (Fox-RRM*). As to the kind of experiment: EMSA; HiTS-Eq, 1 nM pool, 10 min; buffer printed only for the single-RNA assays: 10 mM Tris pH 7.5, 150 mM NaCl, 3.4 mM EDTA, 0.001% NP-40, 30 C. The following applies: tags: His6 N-terminal (pET28a); label: 5' 32P. The method in brief:
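A pool of RNA with 7 randomized nucleotides, 5′-radiolabelled and with DNA-annealed flanks, was equilibrated at 1 nM for 10 min in 50 µL with purified RbFox RRM, wild type or mutant, across increasing protein concentrations. Free RNA was separated by 8% native PAGE, excised, reverse-transcribed, barcoded by PCR and sequenced. Relative association constants were obtained from read-count changes of each RNA species versus the control reaction and normalised to the cognate motif.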
For orientation: Mobility shift assays separate free from complexed probe on a gel.
With B1, the binding signal was 0.118 KA relative to UGCAUGU.
As for B2, the figure is 0.367 KA relative to UGCAUGU; as for B3, 0.138 KA relative to UGCAUGU.
As for B4, the figure is 0.107 KA relative to UGCAUGU; as for B5, 0.0855 KA relative to UGCAUGU.
Turning to B6, the binding signal was 0.111 KA relative to UGCAUGU.
B7: the binding signal was 0.0698 KA relative to UGCAUGU.
Then B8, with 0.0794 KA relative to UGCAUGU.
Regarding B9, the binding signal is 0.524 KA relative to UGCAUGU.
As to B10, the binding signal is 0.0717 KA relative to UGCAUGU.
Then B11, with 0.0526 KA relative to UGCAUGU; and B12, with 0.13 KA relative to UGCAUGU.
As for B13, the figure is 0.298 KA relative to UGCAUGU.
Then B14, with 0.128 KA relative to UGCAUGU; and B15, with 0.111 KA relative to UGCAUGU.
Regarding B16, the binding signal was 0.0913 KA relative to UGCAUGU.
Then B17, with 0.132 KA relative to UGCAUGU; and B18, with 0.0869 KA relative to UGCAUGU.
B19: the binding signal was 0.0933 KA relative to UGCAUGU.
As for B20, the figure is 0.113 KA relative to UGCAUGU; as for B21, 0.0718 KA relative to UGCAUGU; as for B22, 0.0909 KA relative to UGCAUGU.
As for B23, the figure is 0.147 KA relative to UGCAUGU.
As for B24, the figure is 0.0892 KA relative to UGCAUGU; as for B25, 0.0586 KA relative to UGCAUGU; as for B26, 0.0906 KA relative to UGCAUGU.
Regarding B27, the binding signal is 0.0863 KA relative to UGCAUGU.
B28: the binding signal was 0.119 KA relative to UGCAUGU.
B29: the binding signal is 0.0927 KA relative to UGCAUGU.
Then B30, with 0.0665 KA relative to UGCAUGU.
With B31, the binding signal is 0.0627 KA relative to UGCAUGU.
